In article PMC6451091:
Some of the results follow. For part of these data: At the low end of the ranking, values are background and their order means little. For part of these data: The protein was read in a cell extract, so binding may be indirect.

Tests used:
Details in all cases: 20 mM HEPES pH 7.9, 100 mM NaCl, 1 mM DTT, 0.2 mg/mL BSA, 0.02% Triton X-100, 2% milk, 0.4 mg/mL salmon testes DNA; 1 h; temperature not stated; high values mean tight binding; double strand, one strand shown; sequences stand for … in GCCTAGCAC…GTGCTAGGTCTTGATTCGCTTGACGCTGCTG
PU.1 (IVT) = PU.1 (IVT) (UniProt P17947); experiment: protein-binding microarray (PBM)
[1] = biological target: PU.1 (endogenous, THP-1 nuclear extract) (UniProt P17947); experiment: nuclear extract protein-binding microarray (nextPBM)
[2] = biological target: T1, FLI1 (endogenous, THP-1 nuclear extract) (UniProt Q01543); experiment: as above
T1 sequence: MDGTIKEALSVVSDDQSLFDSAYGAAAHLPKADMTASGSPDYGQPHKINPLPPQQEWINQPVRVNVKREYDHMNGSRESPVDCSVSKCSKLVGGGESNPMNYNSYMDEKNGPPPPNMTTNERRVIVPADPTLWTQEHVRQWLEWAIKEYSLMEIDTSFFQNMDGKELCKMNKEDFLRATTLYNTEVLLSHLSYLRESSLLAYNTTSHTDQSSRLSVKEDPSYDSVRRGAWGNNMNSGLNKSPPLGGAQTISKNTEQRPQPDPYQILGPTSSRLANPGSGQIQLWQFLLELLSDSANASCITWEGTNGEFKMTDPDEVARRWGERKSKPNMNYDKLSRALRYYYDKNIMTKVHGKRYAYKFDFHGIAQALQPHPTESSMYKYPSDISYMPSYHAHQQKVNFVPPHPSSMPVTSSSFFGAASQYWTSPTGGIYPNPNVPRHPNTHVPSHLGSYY

Sequence | binding signal (PU.1 (IVT)) [z-score] | binding signal [1] [z-score] | binding signal [2] [z-score]
GAAAAGAGGAAGTCAAACTC | 8.12 | 7.23 | 3.79
CGCAAGGGGAACTGGGATTT | 1.96 | 2.68 | 1.24
GAAGGGAGGAAGTGAAACTT | 3.67 | 5.84 | 3.14
AAAAAAAGGAAGTGAGAGCT | 6.29 | 6.55 | 3.18
AAAAAGAGGAAATGAATTGG | 6.98 | 6.62 | 3.49
CAGTTGAGGAAGTCATGGTG | 3.8 | 3.73 | 1.89
TCAAGAAGGAAGTGGTCACG | 2.99 | 3.04 | 1.94
CACAAAGGGAAGTGGATGCT | 3.48 | 3.27 | 1.92
CAAAAGAGGAACTCATTTTT | 6.82 | 6.94 | 2.67
GAAAGCAGGAAGTGCTAGTA | 4.46 | 5.19 | 3.81
GATAAGAGGAAGTCCTCGGT | 5.92 | 6.42 | 2.98
GTTGTGAGGAAGTGAAGTTA | 3.85 | 3.46 | 1.97
GGAAGGAGGAAGTAAGCTGC | 5.58 | 6.22 | 2.89
CAAAAGGGGAAGTGAGAAAT | 7.82 | 7.36 | 3.83
CAAATGAGGAAATGGAACAG | 4.08 | 4.73 | 2.09
GAAGAGAGGAAGTGACTCCC | 5.07 | 5.33 | 3.23
AGCAGGAGGAAGTGAAGCTA | 3.77 | 4.31 | 2.4
ACAGGAAGGAAGTGTGGGGA | 2.25 | 1.98 | 2.97
CAATTGAGGAAGTCACAAAT | 6.21 | 6.52 | 2.68
GGAAAGGGGAAGTGACCTCC | 7.51 | 7.52 | 3.5
TGAAGGGGGAAGTGCCGCAC | 4.06 | 4.48 | 1.95

Sequence | binding signal (PU.1 (IVT)) [z-score] | binding signal [1] [z-score] | binding signal [2] [z-score]
GAAAAGAGGAAGCCCATGTG | 5.2 | 6.29 | 2.1
AGAAAGAGGAACTGCCCTGC | 6.95 | 6.87 | 2.61
AGAATAGGGAAGTGAGAAAT | 6.39 | 6.76 | 2.76
TGAGTAGGGAAGTGTTCCTT | 3.11 | 3.01 | 1.19
AGAAAGAGGAACTGACTGAC | 6.61 | 6.69 | 2.79
AAAAAAAGGAACTGGTTAGA | 4.93 | 4.29 | 1.44
TGGAGGAGGAACTGAAATAC | 2.94 | 2.75 | 1.07
GATAAGAGCAAGTCCTCTGT | -0.265 | -0.159 | -0.156
GAGAAGAGGAAGTGGACTGA | 6.37 | 6.57 | 3.6
GAGAAGGGGAAGTGGAAGCA | 5.1 | 6.02 | 2.52
GGGAAGAGGAAGTAGATGGA | 6.08 | 6.45 | 3.33
GAAGAAGGGAAGTACTGTGG | 3.75 | 3.29 | 1.83
AGAACAAGGAAGTGCTCTAT | 4.41 | 4.71 | 2.4
GAAAAGAGGAAATGAGAGAG | 5.36 | 6.05 | 2.99
AAAAGAAGGAAGTGTCCAGT | 4.96 | 5.34 | 2.18
AGGAAGGGGAAGTGGTAATT | 5.78 | 6.3 | 3.27
CGAATGAGGAACTGATGCGG | 5.03 | 5.88 | 1.56
ACAAAAAGGATCTGTGCCCC | -0.732 | -0.233 | -0.000778
CAAGAGAGGAAGTGGTCAAC | 4.51 | 4.91 | 3.26
TGAGAGAGGAAGTGCACAGG | 3.83 | 4.27 | 2.46
CTTATGGGGAAGTGGGAGGT | 4.56 | 4.96 | 2.05

Sequence | binding signal (PU.1 (IVT)) [z-score] | binding signal [1] [z-score] | binding signal [2] [z-score]
AAAAAGAGGAACTCCTCCCT | 7.49 | 7.25 | 2.96
AGAGAGGGGAAGTAAATTCT | 5.06 | 4.47 | 1.97
TTATGAAGGAAGTGAAATTG | 2.45 | 2.65 | 1.96
TGAATGAGGAAGTGGAGTTA | 7.05 | 6.96 | 3.71
AAAAAAAGGAACTGGCTAGA | 4.49 | 4 | 1.31
GATTTGAGGAAGTGGGGGAA | 6.86 | 6.74 | 3.58
CAAAAAGGGAAGTTGATGCT | 7.79 | 7.12 | 3.05
AAAAAAAGGAAATGGATCCT | 3.39 | 2.79 | 2.42
CCTGAGAGGAAGTTGGCTTA | 4.53 | 4.74 | 2.89
TAGAATAGGAAGTGAAGTAC | 3.66 | 3.18 | 2.34
GTAAAGGGGAAGTGAGTAAA | 6.16 | 6.67 | 3.06
CAAAAAAGGAAGTGGATGCT | 5.93 | 5.79 | 2.88
AAAAAAAGGGACTGGCTAGA | -0.186 | 0.191 | -0.255
CCTGGGAGGAAGTCAGTGCC | 3.14 | 2.5 | 2.38
AGAAAGAGGAAGTCAAAACA | 7.68 | 7.24 | 3.78
TCGGTAAGGAAGTGCAGAAA | 2.15 | 2.4 | 1.72
GAAAAGGGGAAGTGAGGGAT | 7.81 | 7.2 | 3.67
AAAAAGAGGAAGTGACTCAC | 8.49 | 7.25 | 4.2
GCTAAAGGGAAGTGAGTCAG | 3.79 | 3.76 | 2
AAATTGGGGAAGTCTTCTTA | 5.74 | 5.82 | 1.92
GAAATAAGGAACTGCCACTG | 4.4 | 4.37 | 1.31
